This is one part of the list. At the low end of the ranking the order means little.

The target in the assay is SIX1 homeodomain (reference allele) (UniProt Q15475). In words: universal protein binding microarray. The following applies: Universal all-10-mer PBM (8x60K, AMADID 030236), 300 nM GST-tagged protein, Alexa Fluor 488 anti-GST; buffer, salt, pH and temperature not stated; high values mean tight binding; most listed sequences are background and not binding sites; double strand, one strand shown.
With CCGTACCG, the binding signal came to 0.0495 E-score.

Regarding ATGTGATG, the binding signal is 0.031 E-score.

As to CTCGCGCA, the binding signal was -0.0434 E-score.

In the case of GCCGGTAA, the binding signal was 0.0528 E-score.

Consider AAGGAGAC, for which the binding signal came out at 0.00413 E-score.

For AGCAGTAT, the binding signal worked out at 0.313 E-score.

On to AAACGGCT, for which the binding signal was -0.202 E-score.

With AAGCCTCT, the binding signal is -0.214 E-score.

For the sequence CATTCCGG, the binding signal was -0.0999 E-score.

For the sequence ATGATCAT, the binding signal is 0.246 E-score.

Regarding CATCGTAA, the binding signal is -0.0635 E-score.

Consider GGTGGTAA, for which the binding signal is -0.084 E-score.

As for ACTCAAAC, the binding signal was -0.0901 E-score.

In the case of CCCTCGCC, the binding signal was -0.0217 E-score.

Take GTTTTCGA: the binding signal was -0.229 E-score.

As to GTACGAAC, the binding signal was -0.00865 E-score.

Consider AGTATCTG, for which the binding signal was 0.317 E-score.

Take CAGATAGG: the binding signal turned out to be 0.245 E-score.

Regarding CGATACAA, the binding signal came out at 0.288 E-score.

As for CTGAGTTA, the binding signal was -0.107 E-score.

For the sequence ATCCAGTA, the binding signal amounted to 0.242 E-score.

CTAATCAA: the binding signal was -0.0359 E-score.

Take CCCTTTCA: the binding signal is -0.169 E-score.

Regarding AGAGGTAA, the binding signal was -0.0671 E-score.

For the sequence GTTGGCAA, the binding signal is -0.158 E-score.

As to CATTTACC, the binding signal was 0.0067 E-score.

With AGGGAATG, the binding signal was -0.138 E-score.

Turning to TGAGGAAA, the binding signal was -0.267 E-score.

For CATCGTCC, the binding signal was -0.0271 E-score.

Regarding CCACCGTC, the binding signal is -0.231 E-score.

For the sequence GATTTAGC, the binding signal is -0.105 E-score.

With CCGGTCAG, the binding signal was determined as 0.0616 E-score.

Take ATATAGTC: the binding signal was 0.209 E-score.

For the sequence AATTAAGC, the binding signal was -0.0562 E-score.

On to CATTTATA, for which the binding signal came out at 0.0779 E-score.

Regarding AATGTGTC, the binding signal was -0.189 E-score.

For the sequence ACAAAGTA, the binding signal was -0.00139 E-score.

In the case of CCCAGGCC, the binding signal was -0.271 E-score.

Regarding CCCTCCCC, the binding signal was 0.0341 E-score.

Take CACGAGCA: the binding signal came out at 0.00855 E-score.

As for GATCTTAC, the binding signal is 0.275 E-score.

Regarding GCAATGCA, the binding signal is -0.0755 E-score.

As to AGACCTAG, the binding signal is -0.0843 E-score.

For the sequence TCTATAAA, the binding signal is -0.0583 E-score.

For the sequence GACTCTCA, the binding signal came out at 0.00039 E-score.

For the sequence ACGTTAAA, the binding signal was -0.164 E-score.

ATGGAGCG: the binding signal was -0.0675 E-score.

As to ACATATAA, the binding signal turned out to be 0.114 E-score.

Regarding ATAAATGC, the binding signal is -0.187 E-score.

For GAATAAGA, the binding signal was -0.161 E-score.

GTTCCTGA: the binding signal is -0.123 E-score.

With CTATTCCC, the binding signal was -0.188 E-score.

Consider AACCTTGT, for which the binding signal was -0.239 E-score.

In the case of ATCGCGTA, the binding signal came to 0.189 E-score.

On to TCCCCGAA, for which the binding signal is 0.0531 E-score.

For GTGGATTA, the binding signal worked out at 0.133 E-score.

With CCGGATCA, the binding signal was 0.454 E-score.

Turning to GCATGGTA, the binding signal was 0.125 E-score.

Take CCGGTAAC: the binding signal was -0.167 E-score.

Turning to TCCACTCA, the binding signal was -0.164 E-score.

Turning to AAATAGCG, the binding signal is -0.207 E-score.

As for AGTGTGAG, the binding signal stood at 0.0731 E-score.

On to ATGCACAG, for which the binding signal is -0.131 E-score.

On to ACGAGCTG, for which the binding signal turned out to be 0.103 E-score.

In the case of ACACTCCG, the binding signal is 0.027 E-score.

As to CCAATCGA, the binding signal was 0.046 E-score.

Consider GATCCCAA, for which the binding signal was 0.275 E-score.

Consider CATGGCCG, for which the binding signal was -0.222 E-score.

As to ACACATGC, the binding signal was found to be 0.0304 E-score.

As to ACATCGGC, the binding signal is -0.0708 E-score.

As to AGGCACCC, the binding signal is -0.253 E-score.

Consider CATTGTCG, for which the binding signal was -0.11 E-score.

On to CACTCCGA, for which the binding signal was -0.0253 E-score.

Take ACCGAGGG: the binding signal is -0.0296 E-score.

Take AGCGACCC: the binding signal came out at 0.0129 E-score.

On to GGGCAGAC, for which the binding signal is -0.0718 E-score.

As for TCTACGAA, the binding signal is 0.025 E-score.

For CCCCGCTC, the binding signal came to 0.0702 E-score.

For the sequence GAGCTGCC, the binding signal was -0.0769 E-score.

CTATAAGA: the binding signal is -0.0489 E-score.

Consider AGATCCGA, for which the binding signal stood at 0.276 E-score.

On to TCTGCCAA, for which the binding signal was -0.124 E-score.

Take ATTGTAAG: the binding signal was -0.0522 E-score.

In the case of ATGTCGAG, the binding signal was -0.182 E-score.

Regarding AGTCAAAC, the binding signal was -0.0826 E-score.

AAATCTGC: the binding signal was -0.112 E-score.

As to CAATCACG, the binding signal is -0.114 E-score.

Take CCCGGTCC: the binding signal was -0.205 E-score.

ACGATGTA: the binding signal turned out to be 0.0972 E-score.

Consider ACTAAGAA, for which the binding signal is -0.0853 E-score.

For the sequence CGGTAATC, the binding signal was 0.103 E-score.

For CCAATTCG, the binding signal was -0.0862 E-score.

Take CAGTAAGC: the binding signal is -0.101 E-score.

For GGGAGTGA, the binding signal was determined as 0.0303 E-score.

In the case of TTATCCAA, the binding signal was 0.0728 E-score.

As for AGTGAAGA, the binding signal is 0.0921 E-score.

As to CTCACGGA, the binding signal amounted to 0.0186 E-score.

Turning to CAGTGTTA, the binding signal was 0.0401 E-score.

In the case of AGCAAGCG, the binding signal is -0.0977 E-score.

In the case of GCCTCTGA, the binding signal was -0.111 E-score.

With CGAAGCTC, the binding signal is -0.102 E-score.

As for CTTTAGGC, the binding signal was determined as 0.00728 E-score.

With AATCTTAT, the binding signal was determined as 0.0451 E-score.

With AGGTCAAT, the binding signal is -0.128 E-score.

As for CAACCTTG, the binding signal is -0.177 E-score.

As to AGCAGAGA, the binding signal was -0.0147 E-score.

In the case of ACCGACTG, the binding signal was -0.0812 E-score.

TACTTCGA: the binding signal is 0.115 E-score.

As for ATAGTGAT, the binding signal stood at 0.32 E-score.

AATTTCGA: the binding signal was -0.319 E-score.

Consider ATCCTTTA, for which the binding signal turned out to be 0.187 E-score.

On to GCGGCAGA, for which the binding signal was -0.083 E-score.

As for ACCCCTAC, the binding signal worked out at 0.0627 E-score.

With ACGTTTGG, the binding signal is -0.161 E-score.

With ACTCCTCG, the binding signal is -0.136 E-score.

Regarding TAGCAGAA, the binding signal was -0.0157 E-score.

With CCCCGTCC, the binding signal was 0.0472 E-score.

Take CACTTGGA: the binding signal amounted to 0.0426 E-score.

On to ATCAGTCC, for which the binding signal worked out at 0.111 E-score.

For the sequence AGTGGGTA, the binding signal came out at 0.135 E-score.

For the sequence ACAGCGCA, the binding signal is -0.126 E-score.

Take AATACTAA: the binding signal amounted to 0.0861 E-score.

For the sequence ATCTATAG, the binding signal is 0.163 E-score.

As for AGGCGAGA, the binding signal was -0.129 E-score.

Consider CACTGATC, for which the binding signal was 0.284 E-score.

With GACGGTGC, the binding signal was -0.00636 E-score.

Regarding GTAACTTA, the binding signal is -0.124 E-score.

Turning to CCTCGGAG, the binding signal is -0.0564 E-score.

Take ATTTGCCA: the binding signal was -0.156 E-score.

Regarding GATGAACA, the binding signal was -0.222 E-score.

For AGTGCGAT, the binding signal is 0.196 E-score.

Consider AATCATAT, for which the binding signal is 0.178 E-score.

ATTCCCGC: the binding signal is -0.0675 E-score.

ATCTAGAT: the binding signal turned out to be 0.26 E-score.

Turning to CGCAGTAG, the binding signal was determined as 0.0859 E-score.

On to CGCGCCCG, for which the binding signal was -0.0466 E-score.

On to AAGGCTTA, for which the binding signal was -0.179 E-score.

As to AATCTCCG, the binding signal was found to be 0.0694 E-score.

Regarding GGCCGTTA, the binding signal was -0.0938 E-score.

In the case of GACGGTCA, the binding signal was -0.302 E-score.

Turning to CGGATTCA, the binding signal was 0.0989 E-score.

On to GAGTCTAA, for which the binding signal was -0.275 E-score.

On to ACTTACGA, for which the binding signal was -0.0251 E-score.

Turning to CGAAAGAG, the binding signal was -0.184 E-score.

ACGCCATG: the binding signal turned out to be 0.0292 E-score.

Regarding CCGAATCG, the binding signal worked out at 0.0462 E-score.

Regarding CTCACCTA, the binding signal was 0.00877 E-score.

For the sequence AATGAGAT, the binding signal is 0.278 E-score.

Consider AACGTTCA, for which the binding signal is -0.392 E-score.

As for ACAAGTCC, the binding signal is -0.275 E-score.

Take CTTGGGAC: the binding signal is -0.199 E-score.

Consider CAAGCGCC, for which the binding signal was -0.326 E-score.

On to AAAAATAA, for which the binding signal was -0.0193 E-score.

For ATGATCCG, the binding signal is 0.452 E-score.

On to GGTGTATA, for which the binding signal was found to be 0.372 E-score.

With ACCGCCCA, the binding signal is 0.0623 E-score.

ACATCTTC: the binding signal is 0.00635 E-score.

Take ACTGAATC: the binding signal is -0.246 E-score.

As for ATCAAGCG, the binding signal was determined as 0.228 E-score.

In the case of AATAACGC, the binding signal is -0.209 E-score.

For GTCATGCA, the binding signal is -0.0685 E-score.

With CTTCGCTA, the binding signal was -0.0154 E-score.

With GTGACTCA, the binding signal is -0.215 E-score.

Take CGGCATGC: the binding signal is -0.0598 E-score.

Turning to GGTCCATA, the binding signal was -0.0714 E-score.

Turning to GCTGTTCA, the binding signal was -0.135 E-score.

ATTTGTAA: the binding signal is -0.0568 E-score.

Take AAGGACTC: the binding signal is -0.13 E-score.

GATTGACC: the binding signal was -0.0626 E-score.

Take CACTACTA: the binding signal is -0.07 E-score.

As to ATGAAGAC, the binding signal amounted to 0.057 E-score.

Regarding CGCCTCCC, the binding signal was 0.0417 E-score.
